Screen size: about 310,000 compounds; about 14,000 (4.5%) showed an effect of 50% or more. Effects have a minus sign here. The list shows a part of the results.
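Also: peak tail current of the secondary pulse compared with the same well before compound.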

Sequence of human ether-à-go-go-related gene (hERG) potassium channel (Q12809 whole entry, looked up): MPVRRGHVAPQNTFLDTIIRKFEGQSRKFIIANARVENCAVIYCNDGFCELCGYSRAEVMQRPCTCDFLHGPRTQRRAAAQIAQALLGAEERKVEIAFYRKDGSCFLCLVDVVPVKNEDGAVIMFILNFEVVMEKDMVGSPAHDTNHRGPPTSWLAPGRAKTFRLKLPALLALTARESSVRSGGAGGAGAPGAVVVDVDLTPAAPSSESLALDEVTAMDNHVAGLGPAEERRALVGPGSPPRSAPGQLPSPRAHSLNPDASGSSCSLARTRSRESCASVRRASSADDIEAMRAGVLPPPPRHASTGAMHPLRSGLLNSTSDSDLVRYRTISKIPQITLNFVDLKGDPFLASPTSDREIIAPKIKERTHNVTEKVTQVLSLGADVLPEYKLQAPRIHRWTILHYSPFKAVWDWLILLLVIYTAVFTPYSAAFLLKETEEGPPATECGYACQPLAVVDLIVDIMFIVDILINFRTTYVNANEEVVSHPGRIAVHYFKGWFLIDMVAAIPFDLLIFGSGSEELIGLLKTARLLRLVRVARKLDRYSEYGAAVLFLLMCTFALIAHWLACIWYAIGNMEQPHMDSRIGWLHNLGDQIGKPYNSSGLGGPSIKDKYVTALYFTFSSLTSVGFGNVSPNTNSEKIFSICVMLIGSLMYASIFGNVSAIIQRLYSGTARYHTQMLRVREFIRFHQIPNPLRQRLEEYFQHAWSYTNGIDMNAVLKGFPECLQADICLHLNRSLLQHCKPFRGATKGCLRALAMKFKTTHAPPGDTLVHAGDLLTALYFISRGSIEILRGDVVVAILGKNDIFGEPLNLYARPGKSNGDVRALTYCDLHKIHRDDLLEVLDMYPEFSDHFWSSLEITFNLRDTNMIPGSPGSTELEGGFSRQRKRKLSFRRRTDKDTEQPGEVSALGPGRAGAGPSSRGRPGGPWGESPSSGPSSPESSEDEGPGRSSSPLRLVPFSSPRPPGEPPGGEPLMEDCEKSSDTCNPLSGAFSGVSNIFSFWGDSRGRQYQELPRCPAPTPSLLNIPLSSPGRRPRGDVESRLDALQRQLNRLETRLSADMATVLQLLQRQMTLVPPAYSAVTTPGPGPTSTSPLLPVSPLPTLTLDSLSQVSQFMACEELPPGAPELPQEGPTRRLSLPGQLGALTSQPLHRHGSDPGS

This test addresses human ether-à-go-go-related gene (hERG) potassium channel (human, UniProt Q12809). Put plainly: primary screen, population patch clamp on CHO cells stably expressing hERG.
Take `CC(Oc1ccc([N+](=O)[O-])cc1)C(=O)NCC1CCCO1` (centres unmarked): the “hERG current change (%, negative = inhibition) at 10uM” value is -7.02%. The value for `COC(=O)CSc1nc(NC(C)=O)nc(C)c1Br` was 9.72%. The value for `Cc1ccc(/C(=N\S(=O)(=O)c2ccc(Br)cc2)Nc2ccccc2C)cc1` was 3.64%; that for `COc1ccc(NC(=O)COC(=O)c2cccc(S(=O)(=O)N3CCCCC3)c2)c(OC)c1` was 2.39%; that for `CC1(C)CC(NC(=O)COc2ccc3c4c(c(=O)oc3c2)CCCC4)CC(C)(C)N1` was -6.73%. Take `CCN(C(=O)c1cnc(OC)cc1C(F)(F)F)c1ccc(Cl)cc1`: the “hERG current change (%, negative = inhibition) at 10uM” value is -7.65%. In the case of `Cc1ccc(Cn2c(=O)c3c(nc4n3CCN4Cc3ccco3)n(C)c2=O)cc1`, the “hERG current change (%, negative = inhibition) at 10uM” value was -17.9%. To `COc1cccc(-n2nnc3c(=O)n(CC(=O)Nc4ccccc4C)cnc32)c1` belongs -11.4%; to `CC1=NOC(=O)/C1=C/c1ccc(O)c(Cl)c1`, 13.8%. As to `O=C(O)c1ccc(N=C2NC(=O)C(CO)(CO)S2)cc1`, the “hERG current change (%, negative = inhibition) at 10uM” value is 11.3%. With `CC(C)CC(=O)c1c[nH]c(C(=O)N2CCN(Cc3ccccc3)CC2)c1`, the “hERG current change (%, negative = inhibition) at 10uM” value is listed as -33%. To `CCCC(=O)N1CCc2cc(OC)c(OC)cc2C1COc1ccccc1OC` (centres unmarked) belongs 7.33%; to `CN(CC1CCCN(CCc2ccc(F)cc2)C1)C(=O)CCC(F)(F)F` (centres unmarked), -63%; to `CCOC(=O)c1ccc(Nc2nnc3nc(C)cc(C)n23)cc1`, 16.2%. To `CC(Sc1nncn1C)C(=O)Nc1ccccc1-c1ccccc1` (centres unmarked) belongs 8.27%. To `Cn1c(SCC(=O)NC(c2ccccc2)c2ccccc2)nnc1-c1cccs1` belongs -44.8%. On to `Cc1nc2c(C(=O)NCCc3ccccc3)c[nH]n2c(=O)c1Cl`, for which the “hERG current change (%, negative = inhibition) at 10uM” value came to 4.11%. The value for `O=C(NC(=S)Nn1cnnc1)c1ccccc1Br` was 7.91%; that for `CSc1ccc(CCNS(=O)(=O)c2csc(C(N)=O)c2)cc1` was 2.7%; that for `O=C(c1ccc(S(=O)(=O)c2ccccc2)cc1)N1CCCCCC1` was -9.18%. To `CCc1ccc(C(=O)N2CCN(c3ccc(F)cc3)CC2)s1` belongs -28.9%; to `CCOC(=O)c1c(-c2ccco2)csc1NC(=O)COC(=O)c1cnc(C)cn1`, 7.82%. Take `O=C(O)CC/C(=N\NC(=O)c1ccccc1Br)c1ccccc1`: the “hERG current change (%, negative = inhibition) at 10uM” value amounted to 36%. Regarding `COc1ccccc1NC(=O)c1c(C)cc(=O)oc1C`, the “hERG current change (%, negative = inhibition) at 10uM” value was 14.7%. To `CC(C)CC(NC(=O)CNC(=O)C1O[C@@H]2OC(C)(C)O[C@@H]2[C@H]2OC(C)(C)O[C@@H]12)C(=O)O` (some centres unmarked) belongs -6.46%.

For the compound `[O-][n+]1c2ccc3nonc3c2nn1-c1ccccc1Cl`, the “hERG current change (%, negative = inhibition) at 10uM” value is 6.8%. Take `C=CCNC(=O)CN(c1ccc(OC)cc1OC)S(C)(=O)=O`: the “hERG current change (%, negative = inhibition) at 10uM” value is reported as 14.5%. The value for `Cc1cc(=O)n2nc(N3CCC(C(=O)NCc4ccc(Cl)cc4)CC3)sc2n1` was -70%. The value for `O=C1CSC2(CCCCC2)N1CCO` was 4.78%. The value for `Cc1cc(C)c2c(N)c(C(=O)NC3CC3)sc2n1` was 8.51%; that for `Fc1ccc(NC(=S)NC2CCN(Cc3ccccc3)CC2)cc1` was -30%. Take `O=C(/C=C/c1ccccc1[N+](=O)[O-])NCCN1C(=O)S/C(=C\c2ccc(F)cc2)C1=O`: the “hERG current change (%, negative = inhibition) at 10uM” value was determined as 17%. `c1ccc2cc3[nH]c(CN4CCOCC4)nc3cc2c1`: the “hERG current change (%, negative = inhibition) at 10uM” value was -2.11%.

For the compound `Cc1cccc(C(=O)OCC(=O)N(C)c2ccccc2)c1C`, the “hERG current change (%, negative = inhibition) at 10uM” value was found to be 6.74%. `CCC(=O)NCCc1nc2ccccc2n1CC`: the “hERG current change (%, negative = inhibition) at 10uM” value is listed as 1.33%.

As to `O=C(COc1ccc(Cl)cc1)N1CCN(S(=O)(=O)c2ccccc2)CC1`, the “hERG current change (%, negative = inhibition) at 10uM” value is -54.6%. The value for `COc1ccc(C(=O)NNC(=O)CSc2nnc(C)n2CC2CCCO2)cc1` (centres unmarked) was 18.2%; that for `O=C(OCCNC(=O)c1ccc2ccccc2n1)c1ccc(F)cc1` was -6.68%. To `O=C(CN(Cc1ccc(Cl)cc1)S(=O)(=O)c1ccccc1)NCC1CCCO1` (centres unmarked) belongs -23.9%; to `O=C(Oc1ccnc2cc(Cl)ccc12)N1CCOCC1`, -1.74%. To `NC(=O)Cc1nc2scc(-c3ccc(Cl)cc3)c2c(=O)[nH]1` belongs 2.14%; to `CC(C)Cn1c(N)c(C(=O)COC(=O)Cc2cccc(C(F)(F)F)c2)c(=O)n(C)c1=O`, -54.5%.

For `CC(C)OCCCNC(=O)C1CCC(=O)N1C(C)C` (centres unmarked), the “hERG current change (%, negative = inhibition) at 10uM” value was -10.3%. The value for `COC(=O)[C@@H]1C[C@@]2(O)[C@H](O)[C@H](O)[C@H](O)C[C@H]2N1Cc1ccc(C(C)(C)C)cc1` was 11.1%.

The record behind these values is article PMC4336329 (PLoS ONE, 2015).
